For 39 variants, self-cleavage results are on record in the RNAGym collection of RNA variant scans (doi:10.7554/elife.90254).

B1: LINE1-full (parent)
chain: UACGUAGGUGGUUUUCCCCUGAUAGUGCUAAGGGGGCCUGGAAGUUUGGACUGGGCAGAGCUCAACACAGCGUGGCAAAGUGGCUGUGGCUAGACUGCCUCUCUGGAUUCCUCGUCACUCAGCAGGGCAUCUCUGAGAGAAAUGCC

Read counts are not given, so values of variants with three or more changes are uncertain.

The variants in this series derive from B1. Briefly: self-cleavage, relative activity (ratio to wild type); higher = more cleavage; in vitro, sequencing; the parent is a self-cleaving ribozyme.
As to UACGUAGGUGGUUUUCCCCAGAUAGUGCUAAGGGGGCCUGGAAGUUUGGACUGGGCAGAGCUCAACACAGCGUGGCAAAGUGGCUGUGGCUAGACUGCCUCUCUGGGCUCCUCGUCACUCAGCAGGGCAUCUCUGAGAGAAAUGCC [U20A A107G U108C], the self-cleavage turned out to be 2.37. Consider UACGUAGGUGGUUUUCCCCAGAUAGCGCUAAGGGGGCCUGGAAGUUUGGACUGGGCAGAGCUCAACACAGCGUGGCAAAGUGGCUGUGGCUAGACUGCCUCUCUGGAUCGCUCGUCACUCAGCAGGGCAUCUCUGAGAGAAAUGCC [U20A U26C U109C C110G], for which the self-cleavage was 2.

On to UACGUAGGUGGUUUUCCCCAGAUAGUGCUAAGGGGGCCUGGAAGUUUGGACUGGGCAGAGCUCUACACAGCGUGGCAAAGUGGCUGUGGCUAGACUGCCUCUCUGGAUUCCUCUUCACUAAGCAGGGCAUCUCUGAGGGAAAUGCC [U20A A64U G114U C120A A138G], for which the self-cleavage was determined as 0.34.

As to UACGUAGGUGGUUUUCCCCAGAUAGGGCUGAGGGGGCCUGGAAGUUUGGACUGGGCAGAGCUCAACACAGCGUGGCAAAGUGGCUGUGGCUAGACUGCCUCUCUGGAUUCCUCGACACUCAGCAGGGCAUCUCUGAGAGAAAUGCC [U20A U26G A30G U115A], the self-cleavage was 0.45. To UACGUAGGUGGUUUUCCCCAGAUAGAGCUAAGGGGGCCUGGAAGUUUGGACUGGGCAGAGCUCAACACAGCGUGGCAAAGUGGCUGUGGCUAGACUGCCUCUCUGGAUUCCUCGUCACUCAGCAGGGCAUCUCCGAGAGAAAUGCC [U20A U26A U134C] belongs 0.64.

Regarding UACGUAGGUGGUUUUCCCCAGAUAGUGCUAAGGGGGCCUGGAAGUUUGGGCUGGGCAGAGCUCAACACAGCGUGGCAAAGUGGCUGUGGCUAGACUGCCUCCCUGGAUUCCUCGUCACUCAGCAGGGCAUCUCUGAGAGAAAUGCC [U20A A50G U102C], the self-cleavage was 1.38.

UACGUAGGUGGUUUUCCCCAGAUAGUACUAAGGGGGCCUGGAAGUUAGGACUGGGCAGAGCUCAACACAGCGUGGCAAAGUGGCUGUGGCUAGACUGCCUCUCUGGAUUCCUCGUCACUCAGCAGGGCAUCUCUGAGAGAAAUGCC [U20A G27A U47A]: the self-cleavage turned out to be 0.8. To UACGUAGGUGGUUUUCCCCAGAUAGUGCUAAGGGGGCCUGGAAGUUUGGACUGGGCAGAGCUCAACACAGCGUGGCAAAGUGGCUGUGGCUAGACUGCCUCUCUGGAUUCCUCGUCUCUCAGCGGGGCAUCUCUGAGAGAAGUGCC [U20A A117U A124G A142G] belongs 1.45. To UACGUAGGUGGUUUUCCCCAGAUAGUGCUAAGGGGGCCUGGAAGUUUGGACUGGGCAGAGCUCAACUCAGCGUGGCAAAGUGGCUGUGGCUUGACUGCCUCUCUGGAUUCCUCGUCACUCAGCAGGGCAUCUCUGAGAGAAAUGCC [U20A A67U A92U] belongs 0.14; to UACGUAGGUGGUUUUCCCCAGAUAGUGCUAAGGGGGCCUGGAAGUUUGGACUGGGCAGAGCUCAACACAGCGUGGCAAAGUGGCUGUGACUAGACCGCCUCUCUGGAUUCCUCGUCACUCAGCAGGGCACCUCUGAGAGAAAUGCC [U20A G89A U96C U130C], 0.03. To UACGUAGGUGGUUUUCCCCAGAUAGUGCUAAGGGGGCCUGGAAGUUUGGACUGGGCAGAGCUCAACACAGCGUGGCAAAGUGGCUGUGGCUAGACUGCCUCUCUGGAUUCCUCGUCGCUCAGCAGGGCAUCACUGGGAGAAAAGCC [U20A A117G U132A A136G U143A] belongs 2.63.

As to UACGUAGGUGGUUUUCCCCAGAUAGUACUAAGGGGGCCUGGAAGUUUGGACUGGGCAGAGCUCAACACAGCGUGGCAAAGUGGCUGUGGCUAGACUGCCUCUCUGGAUUCCUCGUCACACAGCAGGGCAUCUCUGAGAGAAAUGCC [U20A G27A U119A], the self-cleavage came to 1.12. To UACGUAGGUGGUUUUCCCCAGAUAGUGCUAAGGGGGGCUGGAAGUUUGGACUGGGCAGAGCUCAACACAGCGUGGCAAAGUGGCUGUGGUUAGACUGCCUCUCUGGAUUCCUCGUCACUCAGCAGGGCAUCUCUGAGAGAAAUGCC [U20A C37G C90U] belongs 0.05; to UACGUAGGUGGUUUUCCCCAGAUAGUGCUAAGGAGGCCUGGAAGCUUGGACUGGGCAGAGCUCAACACAGCGUGGCAAAGUGGCUGUGGCUAGACUGCCUCUCUGGAUUCCUCGUCACUCAGCAGGGCAUCUCUGAGAGGAAUGCC [U20A G34A U45C A140G], 0.97. To UACGUAGGUGGUUUUCCCCAGAUAGUGCUAAGGGGGCCUGGAAGUUUGGAUUGGGCAGAGCUCAACACAGCGUGGCAAAGUGGCUGUGGCUAGACUGCCUCUCUGGAUCCCUCGUCACUCAGCAGGGCAUCUCUGAGAGAAAUGCC [U20A C51U U109C] belongs 1.24; to UACGUAGGUGGUUUUCCCCAGAUAGUGCUAAGGGGGCCUGGAAGUUUGGGCUGGGCAGAGCUCAACACAGCGUGGCAAAGUGGCUGUGGCUAGACCGCCUCUCUGGAUUCCUCGUCACCCAGCAGGGCAUCUCUGAGAGAAAUGCC [U20A A50G U96C U119C], 0; to UACGUAGGUGGUUUUCCCCAGAUAGUGCUAAGGUGGCCUGGAAGUUUGGACUGGGCAGAGCUCAACACAGCGUGGCGAAGUGGCUGCGGCUAGACUGCCUCUCUGGAUUCCUCGUCACUCAGCAGGGCAUCUCUGAGAGAAAUGCC [U20A G34U A77G U87C], 0.19. To UACGUAGGUGGUUUUCCCCAGAUAGUGCUAAGGGGGCUUGGAAGUUCGGACUGGCCAGAGCUCGACACAGCGUGGCAAAGUGGCUGUGGCUAGACUGCCUCUCUGGAUUCCUCGUCACUCAGCAGGGCAUCUCUAAGAGAAAUGCC [U20A C38U U47C G55C A64G G135A] belongs 0.61; to UACGUAGGUGGUUUUCCCCAGAUAGUGCUAAGGGGGCCUGGAAGUUUGGACUGGGCAGAGCUCAACACGGCGUGGCAAAGUGGCUGUGGCUAGACUGCCUUUCUGGAUUCCUCGUCACUCAGCAGGGCAUCUCUGGGAGAAAUGCC [U20A A69G C101U A136G], 0.61; to UACGUAGGUGGUUUUCCCCAGAUAGUGCUAAGGGGGCCUGGAAGUUUGGACUGGGCAGAGCUCAACAUAGCGUGGCGAAGUGGCUGUGGCUAGACUGCCUCUCUGGAUUCCUCGUCACUCAGCAGGGCAUCUCUGAGAGAAAUGCC [U20A C68U A77G], 0.42. On to UACGUAGGUGGUUUUCCCCAGAUAGUGCUAAGGGGGCCUGGAAGUUUGGACUGGGCAGAGCUCAAUACAGCGUGGCAAUGUGGCUGUGGCUAGACUGCCUCUCUGGAUUCCUCGUCACCCAGCAGGGCGUCUCCGAGAGAAAAGCC [U20A C66U A79U U119C A129G U134C U143A], for which the self-cleavage was 0.07. As to UACGUAGGUGGUUUUCCCCAGAUAGUGCUAAGGGGGCCUGGAAGUUUGGACUGGGCAGAGCUCAACACAGCGUGGCGAAGUGGCUGUGGCUAGACUGCCUUUCUGGAUUCCUCGUCACUCAGCAGGGCAUCUCUGAGAGAAAUGCC [U20A A77G C101U], the self-cleavage was found to be 1.53. As to UACGUAGGUGGUUUUCCCCAGAUAGUGCUAAGGGGCCCUGGAAGUUUGGACUGGGCGGAGCUCAACACAGCGUGGCAAAGUGGCUGUGGCUAGACUGCCUCUCUGGAUUCCUCGUCACUCAGCAGGGCAUCUCUGAGAGAAAUGCC [U20A G36C A57G], the self-cleavage turned out to be 0.34. To UACGUAGGUGGUUUUCCCCAGAUAGUGCUAAGGGGGCCUGGAAGUUUGGACUGGGCAGACCUCAACACAGCGUGGCAAAGUGGCUGUGGCUAGACUGCCUCCCUGGAUUCCUCGUCACUCAGCAGGGCAUCUCUGAGAGGGAUGCC [U20A G60C U102C A140G A141G] belongs 0.03. To UACGUAGGUGGUUUUCCCCAGAUAGUGCUAAGGGGGCCUGGAAGUUUGGACUGGGCAGAGCUCAACACAGCGUGGCAGAGUGGCUGUGGCUAGACUGCCUCUCUGGAUUACUCGCCACUCAGCAGGGCAUCUCUGAGAGGAAUGCC [U20A A78G C110A U115C A140G] belongs 1.3. As to UACGUAGGUGGUUUUCCCCAGAUAGCGCUAAGGGGGCCUGAAAGUUUGGACUGGGCAGAGCUCAGCACAGCGUGGCGAAGUGGCUGUGGCUAGACUGCCUCUCUGGAUUCCUCGUCACUCAGCAGGGCAUCUCUGAGAGAAAUGCC [U20A U26C G41A A65G A77G], the self-cleavage was 0. To UACGUAGGUGGUUUUCCCCAGAUAGUGCUAAGGGGGCCUGGAAGUUUGGACUGGGCAGAGCUCAACACAGCGUGGCAAAGUGGCUGUGGCUAGACUGCCUCUCUGGAUUCCUCGUCACUCAGCAGGGCGUCCCAGAGAGAAAUGCC [U20A A129G U132C U134A] belongs 0.6; to UACGUAGGUGGUUUUCCCCAGAUAGUGCUAAGGGGGCAUGGAAGUUUGGACUGGGCAGAGCUCAACGCAGCGUGGCAAAGUGGCUGUGGCUAGACAGCUUCUCUGGAUUCCUCGUCACUCAGCAGGGCAUCUCUGAGGGAAAUGCC [U20A C38A A67G U96A C99U A138G], 0.05; to UACGUAGGUGGUUUUCCCCAGAUAGUGCUAAGGGGGCCUGGAAGUUUGGACUGGGCAGAGCUCAACACAGCGUGGCGAAGUGGCUGUAGCUAGACUGCCCCUCUGGAUUCCUCGUCACUCAGCAGGGCAUCUCUGAGAGAAAUGCC [U20A A77G G88A U100C], 0.15. To UACGUAGGUGGUUUUCCCCAGAUAGUCCUAAAGGGGCCUGGAAGUUUGGACUGGGCAGAGCUCAACACAGCGUGGCAAGGUGGCUGUGGCUAGACUGCCUCUCUGGAUUCCUCGUCACUCAGCAGGGCAUCUCUGAGAGAAAUGCC [U20A G27C G32A A79G] belongs 1.64; to UACGUAGGUGGUUUUCCCCAGAUAGAGCUAAGGGGGCCUGGAAGUUUGGACUGGGCAGAGCUCAACACAGCGUGGCAAAGUGGCCGUGGCUAGACUGCCUCUCUGGAUUCCCCGUCACUCAGCAGGGCAUCUCUGAGAGUAAUGCC [U20A U26A U85C U112C A140U], 0.13; to UACGUAGGUGGUUUUCCCCAGAUAGAGCUAAGGGGGCCUGGAAGUUUGGACUGGGCAGAGCUCAACACAGCGUGGCAAAGUGGCUGUGGCUAGACUGCCUCUCUGGAUUCCACGUCACUCAGCAGGGCAUCUCUGAGAGAAAUGCC [U20A U26A U112A], 0.76.

Consider UACGUAGGUGGUUUUCCCCAGAUAGUGCUAAGGGGGCCUGGAAGUUUGGUCUGGGCAGAGCUCAACACAGCGUGGCAAAGUGGCUGUGGCUAGGCUGCCUCUCUGGAUUCCUCGUCGCUCUGCAGGGCAUCUCUGAGAGAAAUGCC [U20A A50U A94G A117G A121U], for which the self-cleavage was determined as 0.53. To UACGUAGGUGGUUUUCCCCAGAUAGUGCUAAGGGGGCCUGGAAGUUUGGACUGGGCGGAGCUCAACACAGCGUGGCAAAGAGGCUGUGGCUAGACUGCCUCUCUGGAUUCCUCGUCACUCAGCAGGGCAUCUCUGAGAGAAAUGCC [U20A A57G U81A] belongs 1.4; to UACGUAGGUGGUUUUCCCCAGAUAGUGCUAAGGGGGUCUGGAAUUUUGGACUGGGCAGAGCGCAACACAGCGUGGCAAAGUGGCUGUGGCUAGACUGCCUCUCUGGAUUCCUCGUCACUCAGCAGGGCAUCUCUGAGAGAAAUGCC [U20A C37U G44U U62G], 0.

Take UACGUAGGUGGUUUUCCCCAGAAAGUGCUAAGGGGGCCUGGGAGUUUGGACUGGGCAGAGCUCAACACGGCGUGUCAAAGUGGCUGUGGCUAGACUGCCUCUCUGGAUUCCUCGUCACUCAGCAGGGCAUCUCUGAGGGAAAUGCC [U20A U23A A42G A69G G75U A138G]: the self-cleavage was found to be 0.63.

As for UACGUAGGUGGUUUUCCCCAGAUAGAGCUAAGGGGGCCUGGAAGUUUGGACUGGGCAGAGCUCAACACAGCGUGGCAAAGUGGCUGUGGCCGGACUGCCUCUCUGGAUUCCUCGUCACUCAGCAGGGCAUCUCUGAGAGAAAUGCC [U20A U26A U91C A92G], the self-cleavage was 0. To UACGUAGGUGGUUUUCCCCAGAUAGUGCUAAGGCGGCCUGGAAGUUUGGACUGGGCAGAGCUCAGCACAGCGUGGCAAAGUGGCUGUGGCUAGACUGCCUCUCUGGAUUCCUCGUCACCCAGCAGGGCAUCUCUGAGAGAAAUGCC [U20A G34C A65G U119C] belongs 0; to UACGUAGGUGGUUUUCCCCAGAUAGUGCUAAGGGGGCCUGGAAGUUUGGACUGGGCAGAGCUCAACACGGCGUGGCAAAGUGGCUGUGGCUAGACUGCCUCUCUGGAUUCCUCGUCACUCAGCAGGGCAUCUCUGAGGGAAAUGCC [U20A A69G A138G], 0.2.
